Results from PubChem BioAssay AID624170 (National Center for Advancing Translational Sciences (NCATS), 2012).
Among all 410,000 compounds or so, about 850 (0.21%) were called active. Inconclusive means that the source gave no clear call. Such entries were picked first, then a sample of the others. Calls come from the whole dose curve; as a rule, active = well fitted inhibition curve with a large enough effect; inconclusive = small, poorly fitted or top-dose-only effect, or another doubt; inactive = no such curve, though single readings can be large or run the other way. Potencies of inconclusive entries are left out as doubtful fits.

What follows are molecules tested against Glutaminase kidney isoform, mitochondrial (Homo sapiens) (UniProt O94925) (assay: qHTS for Inhibitors of Glutaminase (GLS)). Conditions: GLS enzymatic activity, qHTS titration; series mostly up to 45.5 µM.
Procedure, shortened: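 Two-point fluorescence kinetic (t0, 30 min RT) for hKGA; glutamate detected via glutamate oxidase–HRP–Amplex Red. Substrate: 1 mM L-glutamine solution; buffer 45 mM KH2PO4, pH 8.2.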
Potency is the fitted concentration of half-maximal effect; tags give direction and shape of the fitted curve.

Sequence of UniProt O94925 (O94925 whole entry, looked up, canonical isoform): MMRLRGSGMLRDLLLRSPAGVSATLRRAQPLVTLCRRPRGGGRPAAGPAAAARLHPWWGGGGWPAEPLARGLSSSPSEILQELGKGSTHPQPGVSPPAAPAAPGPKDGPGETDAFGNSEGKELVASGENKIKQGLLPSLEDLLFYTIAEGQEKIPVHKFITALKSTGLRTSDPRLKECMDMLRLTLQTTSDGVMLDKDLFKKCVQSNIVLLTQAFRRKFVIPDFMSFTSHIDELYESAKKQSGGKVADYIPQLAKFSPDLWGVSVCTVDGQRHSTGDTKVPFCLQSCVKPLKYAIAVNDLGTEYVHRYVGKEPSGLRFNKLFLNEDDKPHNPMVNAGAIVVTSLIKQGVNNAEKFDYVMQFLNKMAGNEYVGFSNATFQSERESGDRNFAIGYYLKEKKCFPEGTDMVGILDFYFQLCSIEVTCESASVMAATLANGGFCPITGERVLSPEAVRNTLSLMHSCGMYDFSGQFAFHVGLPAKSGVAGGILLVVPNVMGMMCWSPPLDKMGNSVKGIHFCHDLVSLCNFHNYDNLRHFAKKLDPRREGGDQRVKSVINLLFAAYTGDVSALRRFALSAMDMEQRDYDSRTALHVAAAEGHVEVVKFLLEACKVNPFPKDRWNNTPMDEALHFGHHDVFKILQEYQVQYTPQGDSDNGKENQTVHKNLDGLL

Structure (SMILES)	Potency
N/N=C(\Cc1cscn1)c1ccc(O)cc1O	inconclusive [inhibitor, partial curve]
N#Cc1cc([N+](=O)[O-])ccc1N1CCN(c2ccccc2O)CC1	inconclusive [inhibitor, partial curve]
COc1ccccc1CCNC(=O)C1CCN(c2nnc(C)c3c(C)n(-c4ccc(C)cc4)nc23)CC1	inconclusive [inhibitor, partial curve]
Cc1ccc(CS(=O)(=O)c2ncc(Cl)c(C(=O)Nc3ccc(OC(F)F)cc3)n2)cc1	inactive
N=C1CCC(=N)c2c1c(O)c1ccccc1c2O	inconclusive [inhibitor, single point]
CCc1cc(-c2n[nH]c(C)c2-c2nc(C)cs2)c(O)cc1OC	inconclusive [inhibitor, single point]
Cc1ccc(-c2cc[n+](Cc3ccccc3)cc2)cc1	inconclusive [inhibitor, single point]
C=C(CC)C(=O)c1ccc(OCC(=O)O)c(Cl)c1Cl	inactive
CN1CCN(c2ccc(C(=O)c3ccc(Br)cc3)cc2[N+](=O)[O-])CC1	inactive
Oc1ccc(/C=N/N2CCN(C3c4ccccc4-c4ccccc43)CC2)cc1	inconclusive [inhibitor, partial curve, poor fit]
O=C(COc1ccc(S(=O)(=O)N2CCOCC2)cc1)Nc1ccc2c(c1)OCCO2	inconclusive [inhibitor, single point]
Cc1ccc(NC(=S)c2nc3ccccc3[nH]2)cc1	inactive
O=C1C=C(Nc2ccc(O)cc2)C(=O)c2ccccc21	inconclusive [inhibitor, single point]
COc1ccc(CCNC(=O)c2nn(C)cc2Cl)cc1	inactive
Cc1nn(-c2ccccc2)c2nc(=O)n(-c3ccccc3)cc12	inconclusive [inhibitor, single point]
Cc1sc(NC(=O)C2CCCCC2C(=O)O)c(C(N)=O)c1-c1ccccc1 (stereo not drawn)	inactive
CC(=O)c1cccc(NC(=O)CCNS(=O)(=O)c2cccc(C(C)=O)c2)c1	inactive
COc1cc2c(cc1OC)C1CC(=O)C(CC(C)C)CN1CC2 (stereo not drawn)	inconclusive [inhibitor, partial curve, poor fit]
CCCCn1cnc2c(=S)nc(N)[nH]c21	inconclusive [inhibitor, single point]
Cc1nc2ccc(C(=O)O)cc2c2c1CC(C)S2 (stereo not drawn)	inconclusive [inhibitor, single point]
CCCCCCCC1CC(/C(C)=N/NC(N)=O)OC1=O (stereo not drawn)	inconclusive [inhibitor, single point]
CCOc1ccc2[nH]c3c(N4CCc5ccccc5C4)ncnc3c2c1	inconclusive [inhibitor, single point]

Structure (SMILES)	Potency
COc1ccc(S(=O)(=O)NCCc2nnc3ccc(SCC(=O)Nc4cc(C)cc(C)c4)nn23)cc1	inactive
COc1ccc(CCNC(=O)Cn2nc(C)c3c(C)n(-c4ccccc4)nc3c2=O)c(OC)c1	inactive
C(=N/Nc1cc(N2CCOCC2)nc(N2CCOCC2)n1)/c1ccccc1	inconclusive [inhibitor, single point]
Cc1nc2ccccn2c1-c1ccnc(=S)[nH]1	inconclusive [inhibitor, partial curve]
CCC(C(=O)Nc1ccc(C(C)=O)cc1)n1cnc2nc3c(cc2c1=O)CCCC3 (stereo not drawn)	inconclusive [inhibitor, full curve, poor fit]
CCn1c(CSc2nc3ccccc3s2)nnc1SCC(=O)NCC(=O)OC	inconclusive [inhibitor, single point]
Cc1ccccc1-n1c(-c2csc(C)c2C)n[nH]c1=S	inconclusive [inhibitor, partial curve]
CC1N=C2c3ccccc3N=C(SCc3cc(=O)n4cc(Cl)ccc4n3)N2C1=O (stereo not drawn)	inconclusive [inhibitor, single point]
CNC(=O)COC(=O)c1c2c(nc3ccccc13)CCC2	inconclusive [inhibitor, single point]
O=c1cc(-c2ccc(Br)cc2)[nH][nH]1	inconclusive [inhibitor, single point]
C/C(=N\NC(=O)c1ccccc1)c1cc2cc([N+](=O)[O-])ccc2oc1=O	inconclusive [inhibitor, single point]
CC1=NN(c2ccccc2)C(=O)/C1=C/c1c(O)n(-c2ccc(F)c(Cl)c2)[nH]c1=O	inconclusive [inhibitor, single point]
Cc1ccc(NC(=O)CN2C(=O)S/C(=C\c3cccn3-c3cccc(C(=O)O)c3)C2=O)cc1C	inconclusive [inhibitor, single point]
O=C(Nc1ccc(-c2cnco2)cc1)c1ccccc1	inconclusive [inhibitor, partial curve, poor fit]
COc1cc(OC)cc(C2C(C#N)=C(N)Oc3n[nH]c(-c4cccnc4)c32)c1 (stereo not drawn)	inconclusive [inhibitor, single point]
CCN(C(=O)Cn1c(=O)oc2cc(S(=O)(=O)N3CCCCC3)ccc21)c1ccccc1	inactive
CCN1C(=O)N[C@@H](c2cccc(C(F)(F)F)c2)[C@H](C(=O)OC)[C@H]1C	inactive
CC(=O)Oc1ccc(/C=c2\sc3ncnn3c2=O)cc1	inconclusive [inhibitor, partial curve]
CC(C)C1CC(O)(C2(O)CCCCC2)ON1 (stereo not drawn)	inconclusive [inhibitor, partial curve, poor fit]
CSc1ccccc1NC(=O)CN(Cc1ccccc1)S(C)(=O)=O	inconclusive [inhibitor, single point]
COc1ccc(Oc2ccc(N/C=C3/CCCC3=O)cc2)cc1	inconclusive [inhibitor, single point]
